The whole screen tested about 400,000 compounds, of which about 2,200 (0.55%) were called active. About 1% were inconclusive and are not listed. Calls follow the shape of the dose curve; as a rule, active = well fitted inhibition curve with a large enough effect; inconclusive = small, poorly fitted or top-dose-only effect, or another doubt; inactive = no such curve, though single readings can be large or run the other way. This is a selection; strong and weak results do not stand in their true shares. Some compounds were tested as several samples or in several runs, with calls that do not always agree. Starred links: 1 amine or outer side, 2 acyl side, 3 side chain; linkers in the order of their positions; H or OH if unused. Positions of bridges follow the written chain, without caps; N, C: chain ends. Non-standard residues stand in square brackets, D forms with d. Residues, ends and D or L forms follow the SMILES beside them. ξ: configuration not given here. hSer(Ph(2-I,4-NO2,6-CO)) = O=C([C@H](CCOc1c(I)cc([N+](=O)[O-])cc1C(=O)[*:3])N[*:1])[*:2]; ξD = NC(CC(=O)O)C(=O)O
These compounds were tested against DNA polymerase kappa (Homo sapiens) (UniProt Q9UBT6) (assay: qHTS for Inhibitors of Polymerase Kappa). Details: purified Pol kappa, fluorescent DNA synthesis assay, 10 min; series mostly up to 107 µM; activity, negative = inhibition: at the top concentration.
Summary of the method: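 Activity was followed as the change in fluorescence between reads at 0 and 10 min after starting the reaction with 50 nM substrate. Beforehand, 10 nM polymerase had been preincubated with compound for 15 min at room temperature.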
% is scaled to controls: 0 for no effect and ±100 for the full control effect; potency is read from the fitted curve at half-maximal effect.

UniProt Q9UBT6, sequence (Q9UBT6 whole entry, looked up): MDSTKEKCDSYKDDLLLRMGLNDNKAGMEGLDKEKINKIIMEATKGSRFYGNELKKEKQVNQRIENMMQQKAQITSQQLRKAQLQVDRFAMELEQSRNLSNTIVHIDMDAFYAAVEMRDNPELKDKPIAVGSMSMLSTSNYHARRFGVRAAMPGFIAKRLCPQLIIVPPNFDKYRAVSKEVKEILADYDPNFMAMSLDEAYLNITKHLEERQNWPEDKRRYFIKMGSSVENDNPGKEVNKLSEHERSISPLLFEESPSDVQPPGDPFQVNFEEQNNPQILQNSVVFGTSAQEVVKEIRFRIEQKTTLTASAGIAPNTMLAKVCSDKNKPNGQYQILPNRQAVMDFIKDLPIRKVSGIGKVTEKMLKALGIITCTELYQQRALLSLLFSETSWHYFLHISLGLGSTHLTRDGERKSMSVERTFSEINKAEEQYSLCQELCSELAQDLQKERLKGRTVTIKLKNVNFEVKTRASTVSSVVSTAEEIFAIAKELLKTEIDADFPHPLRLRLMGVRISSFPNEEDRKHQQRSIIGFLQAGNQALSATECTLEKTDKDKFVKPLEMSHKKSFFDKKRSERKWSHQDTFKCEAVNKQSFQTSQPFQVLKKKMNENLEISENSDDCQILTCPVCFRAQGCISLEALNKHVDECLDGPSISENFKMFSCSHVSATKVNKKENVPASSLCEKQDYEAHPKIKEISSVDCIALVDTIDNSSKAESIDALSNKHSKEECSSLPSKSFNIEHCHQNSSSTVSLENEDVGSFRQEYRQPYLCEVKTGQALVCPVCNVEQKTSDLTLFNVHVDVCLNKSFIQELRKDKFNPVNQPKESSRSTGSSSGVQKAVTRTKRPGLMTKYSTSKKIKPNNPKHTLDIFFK

How did the “activity, negative = inhibition” value turn out when `Cc1cc(O)c(C(C)C)cc1Cl` was run?
Its value is inactive: -2.53% [at 60.1 µM].

Which Potency does the source give for `COC(=O)C1=COC(OC2OC(CO)C(O)C(O)C2O)C2C1C=CC2(O)CO` (stereo unspecified) here?
Its Potency is active: 35.5 µM.

For `CC(C)[C@@H]1C(=O)N(S(C)(=O)=O)[C@H]2CCN(C(=O)/C=C\CN3CCCCC3)[C@@H]12`, which activity, negative = inhibition is on record?
Its activity, negative = inhibition is inactive: -5.35% [at 19.4 µM].

With `C/C=C/CC(C)C(O)C1C(=O)NC(CC)C(=O)N(C)CC(=O)N(C)C(CC(C)C)C(=O)NC(C(C)C)C(=O)N(C)C(CC(C)C)C(=O)NC(C)C(=O)NC(C)C(=O)N(C)C(CC(C)C)C(=O)N(C)C(CC(C)C)C(=O)N(C)C(C(C)C)C(=O)N1C` (stereo unspecified) as the compound, how does the Potency read?
Its Potency is “inactive”.

How did the “activity, negative = inhibition” value turn out when `O=C(O)c1cc(O)c2c(c1)[C@@H]([C@H]1c3cc(C(=O)O)cc(O)c3C(=O)c3c(O[C@@H]4O[C@H](CO)[C@@H](O)[C@H](O)[C@H]4O)cccc31)c1cccc(OC3O[C@H](CO)[C@@H](O)[C@H](O)[C@H]3O)c1C2=O` (stereo partly specified) was run?
The value was inactive: -97%.

Which Potency does the source give for `COc1cc(-c2cc(=O)c3c(O)c(OC)c(OC)cc3o2)cc(OC)c1O` here?
The Potency was active: 79.4 µM.

Which Potency does the source give for `N#C/C(=C\c1ccc(O)c(O)c1)C(=O)NCCc1ccccc1` here?
Its Potency is “inactive”.

`CC[C@H](C)[C@@H]1O[C@]2(CC[C@@H]1C)C[C@H]1C[C@H](CC=C(C)[C@@H](O[C@@H]3C[C@H](OC)[C@H](O[C@@H]4C[C@H](OC)[C@H](O)[C@H](C)O4)[C@H](C)O3)[C@@H](C)C=CC=C3CO[C@@H]4[C@@H](O)C(C)=C[C@@H](C(=O)O1)[C@]34O)O2` was tested. Which activity, negative = inhibition did it give?
The activity, negative = inhibition was inactive: -10.2% [at 12 µM].

`O=C(c1ccco1)N(CCC(c1ccccc1)c1ccco1)Cc1ccccc1` (stereo unspecified) was tested. Which Potency did it give?
Its Potency is active: 79.4 µM.

Which “activity, negative = inhibition” value does the source give for `Cc1cc(C)cc(NC(=O)NCC2CCN(Cc3cc(C)ccc3C)CC2)c1` here?
The value was inactive: 0%.

For `CCCCCCCCCCCC`, which “activity, negative = inhibition” value is on record?
The value was inactive: 17.9% [at 60.1 µM].

Which “activity, negative = inhibition” value does the source give for `O=C(Nc1cccc(S(=O)(=O)N2CCOCC2)c1)C1CC(=O)N(c2ccc3c(c2)OCCO3)C1` (stereo unspecified) here?
Its value is inactive: 104%.

Which “activity, negative = inhibition” value does the source give for `COc1cccc(NS(=O)(=O)c2ccc3[nH]cc(C(=O)N(C)Cc4ccco4)c(=O)c3c2)c1` here?
Its value is inactive: -26.9%.

`C1CCc2nnnn2CC1` was tested. Which Potency did it give?
The Potency was “inactive”.

For `C[C@@H]1NC(=O)[C@H](CC(N)=O)NC(=O)c2cc([N+](=O)[O-])cc(I)c2OCC[C@@H](C(=O)NC(CC(=O)O)C(N)=O)NC1=O` (stereo partly specified) (NA[hSer(Ph(2-I,4-NO2,6-CO))][ξD]-NH2; lactam N-3), which Potency is on record?
Its Potency is active: 79.4 µM.

Which “activity, negative = inhibition” value does the source give for `OCC1=C[C@@H](O)[C@@H]2C=CO[C@@H](OC3O[C@H](CO)[C@@H](O)[C@H](O)[C@H]3O)[C@H]12` (stereo partly specified) here?
Its value is inactive: 18% [at 60.1 µM].

How did the Potency turn out when `N=C1/C(=C\c2ccc(-c3ccc(C(=O)O)cc3)o2)C(=O)N=C2SC=C(c3ccccc3)N12` was run?
Its Potency is active: 50.1 µM.

With `Cc1cc(O)cc(C)c1Cl` as the compound, how does the Potency read?
The Potency was “inactive”.

For `C=C(C)C(=O)Oc1ccc(N=Nc2ccc(C)cc2)ccc1=O`, which Potency is on record?
Its Potency is active: 50.1 µM.

For `Cc1ccc(N2CCN(C(=O)c3nn(C)c4c3CS(=O)(=O)c3ccccc3-4)CC2)c(C)c1`, which “activity, negative = inhibition” value is on record?
The value was inactive: -4.85%.

With `O=C(/C=C/c1ccco1)NC(=S)Nc1ccc(C(=O)O)cc1` as the compound, how does the Potency read?
The Potency was active: 25.1 µM.

With `CCNC(=O)[C@H]1O[C@H](n2cnc3c(N)nc(NCCc4ccc(CCC(=O)O)cc4)nc32)[C@@H](O)[C@@H]1O` as the compound, how does the activity, negative = inhibition read?
Its activity, negative = inhibition is inactive: -11.7% [at 19.4 µM].

`C[C@@H](O)[C@@H]1NC(=O)[C@H](CCCCN)NC(=O)[C@H](Cc2c[nH]c3ccccc23)NC(=O)[C@H](Cc2ccccc2)NC(=O)[C@H](Cc2ccccc2)NC(=O)[C@H](CC(N)=O)NC(=O)[C@H](CCCCN)NC(=O)[C@@H](NC(=O)[C@@H]2CCCN2)CSSC[C@@H](C(=O)N[C@@H](CCCCN)C(=O)O)NC(=O)[C@H](CO)NC(=O)[C@H](CO)NC(=O)[C@H](Cc2ccccc2)NC1=O` (H-PCKNFFWKTFSSCK-OH; disulfide 2-13) was tested. Which “activity, negative = inhibition” value did it give?
The value was inactive: 12.8% [at 60.1 µM].

For `COc1cccc(NC(=O)Cn2nnc(C(=O)NCc3cccs3)c2N)c1`, which “activity, negative = inhibition” value is on record?
Its value is inactive: -7.17% [at 60.1 µM].

For `O=c1cc(-c2ccc(O)cc2)oc2c(O)c(O)c(O)c(O)c12`, which Potency is on record?
The Potency was active: 10 µM.

How did the Potency turn out when `CC(=O)Oc1cc(-c2coc3cc(OC(C)=O)c(OC(C)=O)c(OC(C)=O)c3c2=O)cc(OC(C)=O)c1OC(C)=O` was run?
Its Potency is active: 0.355 µM.

`CC1CCN=C(N)S1` (stereo unspecified) was tested. Which Potency did it give?
Its Potency is “inactive”.

`CN(CC(=O)O)c1ccc(/C=C2\C=Cc3ccccc32)cc1` was tested. Which “activity, negative = inhibition” value did it give?
The value was inactive: -8.83%.

How did the activity, negative = inhibition turn out when `CCC(=O)OCC(=O)[C@@]1(OC(=O)CC)[C@H](C)C[C@@H]2[C@@H]3[C@H]([C@@H](O)C[C@@]21C)[C@]1(C)C=CC(=O)C=C1C[C@@H]3Cl` was run?
The activity, negative = inhibition was inactive: -1.74% [at 12 µM].

For `Cc1nc2ccc3nc(NC(=O)C4COc5ccccc5O4)sc3c2s1` (stereo unspecified), which “activity, negative = inhibition” value is on record?
Its value is inactive: 5.84%.

Which Potency does the source give for `O=[N+]([O-])c1ccc(Sc2cccc[n+]2[O-])c2nonc12` here?
Its Potency is active: 31.6 µM.

For `COc1c(Br)cc(/C=N/n2c(-c3ccccc3)n[nH]c2=S)c(O)c1Br`, which Potency is on record?
Its Potency is active: 2 µM.

With `O=C(Cc1nnc(NC(=O)c2ccccc2)s1)N/N=C\c1ccc(O)c(O)c1` as the compound, how does the Potency read?
Its Potency is active: 3.16 µM.

`O=C1CCCC2=C1C(c1ccco1)Nc1ccc3ccccc3c12` (stereo unspecified) was tested. Which Potency did it give?
Its Potency is active: 28.2 µM.

How did the Potency turn out when `CN1CCN(CCC=C2c3ccccc3Sc3ccc(S(=O)(=O)N(C)C)cc32)CC1` was run?
Its Potency is “inactive”.

Which “activity, negative = inhibition” value does the source give for `C[C@@]12C=Cc3occc3[C@H]1CC[C@@]13C[C@@H](CC[C@H]12)[C@@](O)(CO)C3` here?
Its value is inactive: -6.33% [at 60.1 µM].

Which Potency does the source give for `O=C(O)/C=C1\CCCc2ccccc2C1O` (stereo unspecified) here?
Its Potency is “inactive”.

How did the Potency turn out when `COc1ccc2cc([C@H](C)C(=O)O)ccc2c1` was run?
Its Potency is “inactive”.

With `CCN(CC)CCCNc1nc2ccccc2c2[nH]c3ccc(OC)cc3c12` as the compound, how does the Potency read?
Its Potency is active: 17.8 µM.

For `CC(=O)Nc1ccc(NC(=S)NC(=O)/C=C/c2ccco2)cc1`, which Potency is on record?
Its Potency is active: 44.7 µM.

For `COC(=O)C[C@H]1c2cc(C(F)(F)F)ccc2S(=O)(=O)N1C1CCCC1`, which “activity, negative = inhibition” value is on record?
Its value is inactive: 2.12%.

For `COc1ccccc1CNC(=O)C(=O)NCCC1CCCCN1S(=O)(=O)c1cccs1` (stereo unspecified), which Potency is on record?
The Potency was active: 89.1 µM.

Which Potency does the source give for `COc1ccc(-c2nc3c(c(SCC(=O)Nc4cccc(O)c4)n2)Cc2c(CO)cnc(C)c2O3)cc1` here?
The Potency was active: 79.4 µM.

`CCOC(=O)N1CCC(NC(=O)c2cccc3c2C(=O)N(c2ccc(OC)cc2)C3)CC1` was tested. Which Potency did it give?
The Potency was active: 50.1 µM.

How did the “activity, negative = inhibition” value turn out when `NC(Cc1cc(I)c(Oc2ccc(O)c(I)c2)c(I)c1)C(=O)O` (stereo unspecified) was run?
The value was inactive: -5.89% [at 60.1 µM].

How did the “activity, negative = inhibition” value turn out when `O=C(C[C@H]1C/C=C\CC[C@@H](Cc2ccc(F)cc2)C(=O)O[C@@H](c2ccccc2)CNC1=O)N[C@H](CO)Cc1ccccc1` was run?
The value was inactive: -4.14%.

From PubChem BioAssay AID588579 (National Center for Advancing Translational Sciences (NCATS), 2011)
